Consider three compounds from PubChem BioAssay (NCI).

SMILES strings stand for the structures.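 Assay format: 96-well plates, 48-hour exposure. At the GI50, growth is halved. At the TGI there is no net growth.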

The assay concerns NCI-H322M lung. The experiment in a line: growth of human tumour cells (NCI), 48 h.
For the compound `COc1ccc(C(C)=C(c2ccc(OCCCN(C)C)cc2)c2ccc(OCCCN(C)C)cc2)cc1`, the GI50 was 2.6 µM and the TGI is 5.2 µM.

As to `CC(=O)NCC1=C(C)C=C2C(=O)[C@](C)(O)C3(CC3)C(C)=C21`, the GI50 is 0.0386 µM and the TGI is 0.328 µM.

With `Cc1ccc(C(=O)C(c2c[nH]c3ccccc23)c2c[nH]c3ccccc23)cc1`, the GI50 was 14.6 µM and the TGI is 28.2 µM.
